The whole screen tested about 360,000 compounds, of which about 7,500 (2.1%) were called active. Inconclusive results, whose numbers are uncertain, are shown with a selection of clear calls. Calls come from the whole dose curve; as a rule, active = well fitted cell-killing curve with a large enough effect; inconclusive = small, poorly fitted or top-dose-only effect, or effect the other way, or another doubt; inactive = no such curve, though single readings can be large or run the other way. No potency is given beside an inconclusive call; the fits are too rough.
test: qHTS for induction of synthetic lethality in tumor cells producing 2HG: qHTS for the HT-1080-IDH1KD cell line; settings: HT-1080 IDH1 knockdown viability, ATP luminescence, 48 h; activity, negative = toxicity: at 46.1 µM (top of the series) unless noted;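 for activity, negative = toxicity: 0% = DMSO wells and -100% = cell-free medium wells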
Method in brief: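 Assay cells: HT-1080 with IDH1 knockdown, 750 per well, RPMI/5% FBS. Exposure: 48 h at 37 °C following 2 h pre-incubation. Read: CellTiter-Glo luminescence; fitted concentration-response, curve class assigned.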
Potency is the fitted concentration of half-maximal effect; tags give direction and shape of the fitted curve.

Row | Compound | Potency | activity, negative = toxicity
1 | CCN(CC)c1ncnc2scc(C3COc4ccccc4O3)c12 (stereo unspecified) | inconclusive [cytotoxic, single point] | 
2 | CN(C)c1ccccc1C(=O)c1ccccc1N(C)C | active: 4.61 µM | 
3 | CCN(c1ccccc1)S(=O)(=O)c1ccc(NCC2COc3ccccc3O2)nc1 (stereo unspecified) | inconclusive [cytotoxic, single point] | 
4 | CCOc1ccc(CSCCNC(=S)Nc2ccc(OC)cc2)cc1 | inactive | 
5 | CC(C)(C)OC(=O)C[C@H]1C/C=C\C[C@H](CC(=O)N(CCO)Cc2ccccc2)C(=O)N[C@@H](c2ccccc2)COC1=O | inactive | 
6 | CCCC(=O)NC(=S)Nc1ccc(S(=O)(=O)N2CCc3ccccc32)cc1 | inactive | 
7 | O=C1Nc2ccccc2N=C(c2ccc3c(c2)OCO3)C1N(CCc1ccccc1)C(=O)CSc1ncccn1 (stereo unspecified) | inconclusive [cytotoxic, partial curve] | 
8 | Cc1ccc2nc(NC(=O)c3ccc(OCC4CCCO4)cc3)sc2c1 (stereo unspecified) | active: 7.31 µM | 
9 | CC1(C(=O)NS(=O)(=O)c2cccc(F)c2)CCN1C(=O)Cc1cc(F)ccc1F (stereo unspecified) | inactive | 
10 | COC(=O)c1c(NC(=O)CC2SC(N)=NC2=O)sc2c1CCC(C(C)(C)C)C2 (stereo unspecified) | inconclusive [cytotoxic, single point] | 
11 | CCOc1ccc(NS(=O)(=O)c2ccc(NS(=O)(=O)c3ccccc3)cc2)cc1 | inconclusive [cytotoxic, single point] | 
12 | CC1(C)CC(=O)C2=C(C1)N(c1ccc(Cl)cc1)C(=O)C2(O)C(F)(F)F (stereo unspecified) |  | inconclusive: 33.4%
13 | CN1CCN(c2ccc(-c3ccc4ccccc4n3)cc2)CC1 | inconclusive [cytotoxic, partial curve] | 
14 | COc1ccccc1C1C(C#N)=C(N)N(N(C)C)C2=C1C(=O)CC(C)(C)C2 (stereo unspecified) | inactive | 
15 | Cc1cc(F)ccc1NC(=O)c1ccc(NS(=O)(=O)c2cc(C(C)(C)C)ccc2C)cc1 | inconclusive [cytotoxic, single point] | 
16 | COc1ccc(C2=Cc3ccccc3C(CC(=O)C3CC3)N2c2ccc(C#CCCO)cc2)cc1 (stereo unspecified) | inconclusive [cytotoxic, single point] | 
17 | CCc1ccc(O)c(N=Cc2cccc(C)c2O)c1 | inconclusive [cytotoxic, single point] | 
18 | N#Cc1ccc(-c2ccccc2)nc1SCC(=O)c1cc2ccccc2oc1=O | inconclusive [cytotoxic, single point] | 
19 | CC(C)n1nnnc1C1c2ccccc2C(=O)N1CCc1c[nH]c2ccccc12 (stereo unspecified) | inactive | 
20 | Cc1ccc(Cc2c(-c3ccc(Cl)cc3)nc3c4ccccc4ccn23)cc1 | inactive | 
21 | COc1ccc(C(C(=O)NC2CCCC2)N(C(=O)c2ccoc2C)c2ccc(C)c(C)c2)cc1 (stereo unspecified) | inconclusive [cytotoxic, single point] | 
22 | CCOc1ccc2nc(NC(=O)c3ccoc3C)sc2c1 | active: 3.66 µM | 
23 | C1=Nc2c(Nc3ccccc3)ncnc2Oc2ccccc21 | inconclusive [cytotoxic, single point] | 
24 | CC(C)(C)NS(=O)(=O)c1ccc2nc(NC(=O)Cc3cccs3)sc2c1 | inconclusive [cytotoxic, partial curve] | 

Row | Compound | Potency | activity, negative = toxicity
25 | COC(=O)c1cccc(Nc2nc3ccccc3nc2C)c1 | inconclusive [cytotoxic, single point] | 
26 | Cc1cc(C(C)(C)C)ccc1OCCn1ccnc1 | inactive | 
27 | O=C(Nc1ccccc1N(C(=O)c1ccco1)S(=O)(=O)c1cccs1)c1ccco1 | inconclusive [cytotoxic, single point] | 
28 | CCOC(=O)N1CCC(NC(=O)c2cc(-c3ccc(OC)cc3)nc3ccccc23)CC1 | inactive | 
29 | COc1cc(C)ccc1OCCOCCOc1cc(C)c(C)cc1Br | inactive | 
30 | O=S(=O)(Nc1ccc(S(=O)(=O)Nc2ncccn2)cc1)c1ccccc1 | inactive | 
31 | COc1ccc(CC(N)c2csc(NC(=O)Nc3cc(OC)ccc3OC)n2)cc1 (stereo unspecified) | inconclusive [cytotoxic, single point] | 
32 | COc1c(Cl)cc(C(=O)Nc2ccccc2C(=O)O)cc1Cl | inconclusive [cytotoxic, single point] | 
33 | CCCCCCn1c(=O)n2n(c1=O)C[C@]1(OC(=O)NCc3ccccc3F)CN(S(=O)(=O)c3ccc(C)cc3)C[C@]1(O)C2 | inconclusive [cytotoxic, single point] | 
34 | C=CCNc1nc(NCCOc2ccccc2Cl)c2sc(-c3ccccc3)cc2n1 | inconclusive [cytotoxic, single point] | 
35 | CC(C)(C)c1nc(SCC(=O)Nc2ccc3c(c2)OCCO3)c2ccccc2n1 | inactive | 
36 | COc1ccccc1-c1nc(-c2ccccc2)nc(N2CCN(C)CC2)c1C#N | active: 20.6 µM | 
37 | O=C(Cn1cc(COc2cccc([N+](=O)[O-])c2)nn1)c1ccc(O)cc1 | inconclusive [cytotoxic, single point] | 
38 | Oc1ccc2n[nH]nc2c1 | inactive | 
39 | Cc1cc(C)c(-c2csc(NC(=O)CCCc3nc4ccccc4c(=O)[nH]3)n2)c(C)c1 | inconclusive [cytotoxic, partial curve] | 
40 | O=C(O)c1cccc(-n2cccc2/C=C2/NC(=O)N(Cc3ccccc3F)C2=O)c1 | inconclusive [rising, single point] | 
41 | O=C(/C=C/c1cn(-c2ccccc2)nc1-c1ccccc1)Nc1ccc(C(=O)O)cc1 | active: 23.1 µM | 
42 | O=[N+]([O-])c1ccccc1N/N=C/c1cccc(O)c1O | inconclusive [cytotoxic, single point] | 
43 | CC(SCC(=O)Nc1ccc(F)cc1)c1nc2ccccc2c(=O)[nH]1 (stereo unspecified) | inactive | 
44 | CC(Oc1ccc(F)cc1)C(=O)N(CCC1=CCCCC1)c1c(N)n(Cc2ccccc2)c(=O)[nH]c1=O (stereo unspecified) | inconclusive [cytotoxic, single point] | 
45 | O=c1oc2ccccc2c(O)c1Sc1c(O)c2ccccc2oc1=O | inconclusive [cytotoxic, single point] | 
46 | Cc1ccc(NC(=O)CSc2nc3[nH]ncc3c(=O)[nH]2)cc1Cl |  | inconclusive: -31.3% [cytotoxic]
47 | Cc1cccc(C)c1N1C(=O)c2ccccc2NC(=O)C1C(=O)NCc1ccco1 (stereo unspecified) | inactive | 
48 | COc1ccc(OC)c(S(=O)(=O)N2CCC(C(=O)N3CCN(Cc4ccccc4)CC3)CC2)c1 | inactive | 

Row | Compound | Potency | activity, negative = toxicity
49 | CC(=NNC(=S)Nc1cccc(C)c1)c1ccccn1 | inconclusive [cytotoxic, full curve] | 
50 | Cc1c(C(=O)OCC2CCCO2)[nH]c2c1C(=O)CC(c1ccc(N(C)C)cc1)C2 (stereo unspecified) | inactive | 
51 | CC(=O)C1=CCC(c2ccc(Cl)c(Cl)c2)N(S(=O)(=O)c2ccc(C)cc2)C1 (stereo unspecified) | inconclusive [cytotoxic, single point] | 
52 | C/C(=N/Nc1cc(-c2ccccc2)nc(-c2ccccc2)n1)c1ccc(O)cc1 | inconclusive [cytotoxic, single point] | 
53 | O=C1C=CC(=O)N1 | inconclusive [cytotoxic, single point] | 
54 | Cc1cc(C(=O)c2ccccc2)c(NC(=O)CCl)s1 | inconclusive [cytotoxic, single point] | 
55 | Cc1ccc(S(=O)(=O)N(C)CC(=O)Oc2ccc(-c3nnco3)cc2)cc1 | inactive | 
56 | Cn1c(=O)c2cc(S(=O)(=O)N3CCC(c4ccccc4)CC3)ccc2n(C)c1=O | inconclusive [rising, single point] | 
57 | Cc1nn(-c2ccccc2)c(C)c1/C=N/NC(=O)CSc1nc2ccccc2c(=O)n1-c1ccc(Br)cc1 | active: 13 µM | 
58 | CC(=O)N(c1ccc2ccccc2c1)C1SC(=O)N(c2cccc(C)c2)C1=O (stereo unspecified) | inactive | 
59 | Cc1cccn2c(=O)c3cc(C(=O)NC4CCCC4)c(=N)n(C4CCCC4)c3nc12 | inconclusive [cytotoxic, single point] | 
60 | O=C(NCCC1CCCCN1S(=O)(=O)c1ccc(Cl)cc1)C(=O)NCc1ccco1 (stereo unspecified) | inconclusive [cytotoxic, single point] | 
61 | Cc1ccc(OCC(=O)NNC(=S)NC(=O)C(C)(C)C)c(Br)c1 | inconclusive [cytotoxic, single point] | 
62 | COC(=O)c1ccccc1NC(=O)NCCc1ccc(OC)c(OC)c1 | inactive | 
63 | CCOc1ccc(-c2n[nH]c(C)c2-c2ccccc2OC)c(O)c1 | inconclusive [cytotoxic, single point] | 
64 | COc1ccc(CN(C)CC(O)COc2ccc(C(=O)c3ccccc3)cc2)c(OC)c1OC (stereo unspecified) | inconclusive [cytotoxic, partial curve, poor fit] | 
65 | CC1(C)C(c2ccco2)=[N+]([O-])C2(CCCCC2=O)N1O (stereo unspecified) | inactive | 
66 | Cc1ccc(S(=O)(=O)N(C)C)cc1NC(=S)Nc1cccc2ccccc12 | inactive | 
67 | COc1ccc(OCC(=O)Nc2ccccc2N2CCCCC2)cc1 | active: 4.11 µM | 
68 | Cc1ccccc1Cc1c(C)nc2c(C(=O)N3CCN(Cc4ccc5c(c4)OCO5)CC3)cnn2c1C | inconclusive [cytotoxic, single point] | 
69 | CCN1CCN(S(=O)(=O)c2ccc(Cl)c(C(=O)N(C)CCOc3ccc(Cl)cc3)c2)CC1 | inconclusive [cytotoxic, partial curve] | 
70 | CCCc1nc2c(ccc3ccccc32)cc1CC | inactive | 
71 | O=C(N/N=C\c1ccc([N+](=O)[O-])o1)C1COc2ccccc2O1 (stereo unspecified) | active: 20.6 µM | 

Source: PubChem BioAssay AID686971 (National Center for Advancing Translational Sciences (NCATS), 2013)
